Results published in PubChem BioAssay AID1508642 (National Center for Advancing Translational Sciences (NCATS), 2021).
Screen size: about 43,000 compounds; about 200 (0.47%) were called active. About 12% were inconclusive and are not listed. Calls follow the shape of the dose curve; as a rule, active = well fitted cell-killing curve with a large enough effect; inconclusive = small, poorly fitted or top-dose-only effect, or effect the other way; inactive = flat fitted curve, though single readings scatter. The list shows a part of the results.

assay: Cell viability qHTS assay in S16 Pmp22-F2sN cells; conditions: S16 Pmp22-F2sN Schwann cells (luciferase reporters placed in the Pmp22 gene) viability, CellTiter-Glo, 24 h; series mostly up to 57.5 µM; activity change, negative = cytotoxicity: at the top concentration; also: nearly all actives have a fitted effect of over 65% in size
Summary of the method: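 S16 Schwann cells carrying the Pmp22-F2sN reporter, seeded in 1536-well format, were exposed to library compounds for 24 h at 37C. Viability was read as CellTiter-Glo luminescence after 15 min at room temperature.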
% is scaled to controls: 0 for no effect and ±100 for the full control effect.

Compound | activity change, negative = cytotoxicity
O=C(Nc1ccc(OC(F)(F)F)cc1)c1cc(-c2ccc(Cl)cc2)on1 | inactive: 4.89%
Cc1cccc(NC(=O)CSc2cn(CC(=O)N3CCOCC3)c3ccccc23)c1C | inactive: 5.06%
Cc1ccc2nc(COc3ccccc3NC(=O)Nc3ccc(F)c(Cl)c3)cc(=O)n2c1 | inactive: -13.1%
CC(=O)N1CCCc2ccc(NC(=O)c3ccc(OC(C)C)cc3)cc21 | inactive: -3.86%
CCc1ccc(NC(=O)Cn2ncn3c(cc4ccccc43)c2=O)cc1 | inactive: -1.11%
Cc1ccc2c(=O)cc(C(=O)Nc3c(C)cccc3C)oc2c1 | inactive: -1.24%
Cc1cc2c(cc1S(=O)(=O)NCc1ccc(F)cc1)OCCN2C | inactive: 4.65%
CCCCN(Cc1cc2cc(C)ccc2[nH]c1=O)C(=O)c1cccc(Cl)c1 | inactive: 6.35%
COc1cccc2cc(-c3nc4sc5c(c4c(=O)[nH]3)CCC(C(C)(C)C)C5)c(=O)oc12 (stereo unspecified) | inactive: -2.52%
COc1ccc(S(=O)(=O)c2c(Nc3cccc(Cl)c3)sc(C(=O)c3ccccc3)c2N)cc1 | inactive: 12.4%
COc1ccc(/C=C/c2nc(C#N)c(N3CCCCC3)o2)cc1OC | inactive: 0.844%
Cc1ccc(C(=O)c2oc3ccccc3c2NC(=O)COc2ccc(Cl)c(C)c2)cc1 | inactive: 10.8%
COc1cccc(NC(=O)Cn2c(=O)oc3cc(S(=O)(=O)N4CCCCC4)ccc32)c1 | inactive: 3.04%
COc1cc(C2CC(=O)Nc3cc4c(cc32)OCO4)cc(OC)c1O (stereo unspecified) | inactive: 1.93%
Cc1c(C)n(Cc2ccc(Cl)cc2)c2ccc(C(=O)N3CCN(c4ccccc4F)CC3)cc12 | inactive: -27.7%
COc1cccc(CNC(=O)C2CCCN(c3nnc(-n4c(C)ccc4C)s3)C2)c1OC (stereo unspecified) | inactive: 6.39%
CSc1nn(Cc2ccc(F)cc2)c(N(C(C)=O)C(C)=O)c1S(=O)(=O)c1ccccc1 | inactive: 5.86%
CCc1cccc(CC)c1NC(=O)CN(C)S(=O)(=O)c1ccc2c(c1)n(C)c(=O)c(=O)n2C | inactive: -5.11%
O=c1oc2ccccc2cc1-c1cn2cc(Cc3ccc(F)cc3)sc2n1 | inactive: -1.95%
CCc1ccc(NC(=O)CC(NCc2cccnc2)C(=O)O)cc1 (stereo unspecified) | inactive: -1.3%
Cc1ccc(OCC(=O)Nc2ccc(OCc3cc(=O)n4c(C)csc4n3)cc2)cc1C | inactive: -4.28%

Compound | activity change, negative = cytotoxicity
CCOC(=O)c1c(C)oc2ncnc(Nc3cccc(C(F)(F)F)c3)c12 | inactive: 13.6%
CSc1ccc(CCNC(=O)Cn2nc(C)n3c(cc4sccc43)c2=O)cc1 | inactive: -0.777%
Cc1nc(-c2ccc(Cl)cc2)sc1CCNC(=O)C(=O)Nc1ccc2c(c1)OCO2 | inactive: 5.15%
CCOC(=O)c1cccc(NC(=O)Cn2ncc3c(=O)oc4ccccc4c32)c1 | inactive: -5.08%
Cn1c(=O)c2c(nc(SCC(=O)Nc3ccccc3F)n2Cc2ccccc2F)n(C)c1=O | inactive: 1.36%
Cc1ccc(Cn2ccnc2SCC(=O)NCc2ccccc2)cc1 | inactive: 2.43%
COc1ccccc1N1CCN(C(=O)c2cc3c(=O)n(Cc4cccs4)ccc3nc2C)CC1 | inactive: 5.62%
CCOC(=O)N1CCc2c(sc3c2c(=O)n(-c2ccc(CC)cc2)c(=O)n3Cc2ccc(F)cc2Cl)C1 | inactive: 16.6%
COc1ccc(N2CCN(CCCNC(=O)c3c(C)nn(-c4ccc(F)cc4)c3-n3cccc3)CC2)cc1 | inactive: -9.66%
CCc1ccc(NC(=O)Cn2nnc(-c3ccccc3N)n2)cc1 | inactive: 0.7%
CC(C)C(=O)Nc1nnc(S(=O)(=O)N2CCc3ccccc32)s1 | inactive: 9.68%
Cc1cccc(N2CCN(c3ccc4cc(S(=O)(=O)N5CCC(C)CC5)ccc4n3)CC2)c1C | inactive: 4.19%
COc1ccccc1NC(=O)N1CCN(c2ccc3nnc(-c4ccc(F)cc4)n3n2)CC1 | inactive: 4.08%
CCOc1ccc(NC(=O)Cn2nc(Cc3cccnc3)c3ccccc3c2=O)cc1 | inactive: -1.08%
Cc1ccc(-n2ncc3c(NCCCn4ccnc4)ncnc32)cc1C | inactive: -19.3%
CCOC(=O)c1c(NC(=O)Cc2coc3ccc(CC)cc23)sc2c1CCC2 | inactive: 0.728%
CCOc1ccc2nc(N3CCCC(C(=O)NCCc4ccc(Cl)cc4)C3)sc2c1 (stereo unspecified) | inactive: -8.49%
CCOC(=O)CSc1nc2ccccc2c(=O)n1-c1ccc(C(=O)NCCOC)cc1 | inactive: 7.08%
O=C(Nc1ccccc1C(F)(F)F)N1CCOc2ccc(Cl)cc21 | inactive: 3.95%
Cc1ccc(N2C(=O)CS(=O)(=O)C23C(=O)Nc2ccccc23)cc1C (stereo unspecified) | inactive: 10.9%
Cc1ccccc1Cn1ccn(-c2ccc(F)c(F)c2)c(=O)c1=O | inactive: 4.51%

Compound | activity change, negative = cytotoxicity
CN(Cc1nc(-c2ccc(Cl)cc2)no1)S(=O)(=O)c1ccccc1 | inactive: -12.3%
CC(C)c1ccc(C2CC(=O)Nc3cc4c(cc32)OCCO4)cc1 (stereo unspecified) | inactive: -2.01%
CCOC(=O)N1CCC(NC(=O)c2ccc3c(c2)N(Cc2ccccc2C)C(=O)c2ccccc2S3=O)CC1 (stereo unspecified) | inactive: 3.28%
O=C(NCc1cccs1)c1ccc2c(c1)sc1nc(-c3ccc(F)cc3)cn12 | inactive: 11.9%
O=C(Nc1cc(Cl)ccc1Cl)c1ccc2c(c1)N(Cc1cccc(Cl)c1)C(=O)c1ccccc1S2=O (stereo unspecified) | inactive: 8.26%
COc1ccc(N2CCN(C(=O)Nc3cn(CC(C)C)c(=O)c4ccccc34)CC2)cc1 | inactive: -3.69%
Cc1ccc2oc(C(=O)Nc3c(C(=O)Nc4cccc(Cl)c4)oc4ccccc34)cc(=O)c2c1 | inactive: 0.817%
Cc1nn(-c2ccccc2)c(OC(=O)c2ccccc2)c1S(=O)(=O)c1ccccc1 | inactive: 8.2%
COc1c(Cl)cc(C(=O)Nc2cc(-c3nc4ccccc4[nH]3)ccc2C)cc1Cl | inactive: -3.23%
CCCCNc1nc2c(S(=O)(=O)c3ccc(Br)cc3)nnn2c2ccsc12 | inactive: -18.7%
Cc1ccc(NC(=O)Cn2c(=O)n(Cc3nc(-c4ccccc4)no3)c(=O)c3ccccc32)c(C)c1 | inactive: 0.967%
CCN(C(=O)CN1C(=O)c2ccccc2Sc2ccc(C(=O)OC)cc21)c1cccc(C)c1 | inactive: -0.161%
CCC(=O)N1CCc2cc(S(=O)(=O)NC(Cc3ccccc3)C(=O)NCc3ccccc3)ccc21 (stereo unspecified) | inactive: -5.75%
Cc1ccc(OCC(=O)Nc2ccc(OCc3cc(=O)n4ccsc4n3)cc2)cc1C | inactive: -1.44%
Cc1ccc(C(=O)N(Cc2ccc(N(C)C)cc2)CC2CCCO2)cc1 (stereo unspecified) | inactive: 11.9%
Cc1nn(C(C)C(=O)NCc2ccc(OC(C)C)cc2)c(=O)c2c1sc1ccccc12 (stereo unspecified) | inactive: 4.37%
Cc1ccc2ccc3cc(C(=O)N4CCN(c5ccccc5F)CC4)nc3c2[nH]1 | inactive: 4.13%
CCCCNC(=O)CCC(=O)NNc1nc2ccccc2c2nc(C)nn12 | inactive: 5.13%
CC(CCc1ccccc1)NC(=O)CSc1n[nH]c(-c2ccccc2)n1 (stereo unspecified) | inactive: -9.51%
